The supplement of paper PMC8728848
The list shows a part of the results.

How the values were obtained:
Assay in all cases: glycan array binding signal (z-score within array); higher = stronger binding
Conditions in all cases: glycan notation: IUPAC condensed, linker removed
Fuc(a1-2)Gal = target: Fuc(a1-2)Gal
Method in brief: (§1)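 The Consortium for Functional Glycomics database supplied 3228 glycan arrays, of which those lacking an available protein sequence were dropped. The binding signal, a within-array Z-score, was averaged across arrays of the same protein sequence and across linkers. Negative scores can be read as non-binding.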

Fuc(a1-2)Gal(b1-3)GalNAc = target: Fuc(a1-2)Gal(b1-3)GalNAc
Method in brief: as §1

[1] = target: Fuc(a1-2)Gal(b1-3)GalNAc(a1-3)[Fuc(a1-2)]Gal(b1-4)Glc
Method in brief: as §1

[2] = target: Fuc(a1-2)Gal(b1-3)GalNAc(a1-3)[Fuc(a1-2)]Gal(b1-4)GlcNAc
Method in brief: as §1

[3] = target: Fuc(a1-2)Gal(b1-3)GalNAc(b1-3)Gal
Method in brief: as §1

[4] = target: Fuc(a1-2)Gal(b1-3)GalNAc(b1-3)Gal(a1-4)Gal(b1-4)Glc
Method in brief: as §1

[5] = target: Fuc(a1-2)Gal(b1-3)GalNAc(b1-4)[Neu5Ac(a2-3)]Gal(b1-4)Glc
Method in brief: as §1

Fuc(a1-2)Gal(b1-3)GlcNAc = target: Fuc(a1-2)Gal(b1-3)GlcNAc
Method in brief: as §1

[6] = target: Fuc(a1-2)Gal(b1-3)GlcNAc(b1-2)Man(a1-3)[Fuc(a1-2)Gal(b1-3)GlcNAc(b1-2)Man(a1-6)]Man(b1-4)GlcNAc(b1-4)GlcNAc
Method in brief: as §1

[7] = target: Fuc(a1-2)Gal(b1-3)GlcNAc(b1-2)Man(a1-3)[Fuc(a1-2)Gal(b1-3)GlcNAc(b1-2)Man(a1-6)]Man(b1-4)GlcNAc(b1-4)[Fuc(a1-6)]GlcNAc
Method in brief: as §1

[8] = target: Fuc(a1-2)Gal(b1-3)GlcNAc(b1-3)Gal(b1-4)Glc
Method in brief: as §1

[9] = target: Fuc(a1-2)Gal(b1-3)GlcNAc(b1-3)GalNAc
Method in brief: as §1

[10] = target: Fuc(a1-2)Gal(b1-3)GlcNAc(b1-3)[Fuc(a1-2)Gal(b1-3)GlcNAc(b1-6)]GalNAc
Method in brief: as §1

[11] = target: Fuc(a1-2)Gal(b1-3)GlcNAc(b1-3)[Gal(b1-4)GlcNAc(b1-6)]Gal(b1-4)Glc
Method in brief: as §1

[12] = target: Fuc(a1-2)Gal(b1-3)GlcNAc(b1-3)[Neu5Ac(a2-6)Gal(b1-4)GlcNAc(b1-6)]Gal(b1-4)Glc
Method in brief: as §1

[13] = target: Fuc(a1-2)Gal(b1-3)GlcNAc6S
Method in brief: as §1

[14] = target: Fuc(a1-2)Gal(b1-3)[Fuc(a1-4)]GlcNAc
Method in brief: as §1

[15] = target: Fuc(a1-2)Gal(b1-3)[Fuc(a1-4)]GlcNAc(b1-2)Man(a1-3)[Fuc(a1-2)Gal(b1-3)[Fuc(a1-4)]GlcNAc(b1-2)Man(a1-3)]Man(b1-4)GlcNAc(b1-4)GlcNAc
Method in brief: as §1

[16] = target: Fuc(a1-2)Gal(b1-3)[Fuc(a1-4)]GlcNAc(b1-2)Man(a1-3)[Fuc(a1-2)Gal(b1-3)[Fuc(a1-4)]GlcNAc(b1-2)Man(a1-6)]Man(b1-4)GlcNAc(b1-4)[Fuc(a1-6)]GlcNAc(b1-4)[Fuc(a1-6)]GlcNAc
Method in brief: as §1

[17] = target: Fuc(a1-2)Gal(b1-3)[Fuc(a1-4)]GlcNAc(b1-3)[Fuc(a1-3)[Gal(b1-4)]GlcNAc(b1-6)]Gal(b1-4)Glc
Method in brief: as §1

[18] = target: Fuc(a1-2)Gal(b1-3)[Fuc(a1-4)]GlcNAc(b1-3)[Gal(b1-4)GlcNAc(b1-6)]Gal(b1-4)Glc
Method in brief: as §1

[19] = target: Fuc(a1-2)Gal(b1-4)Fuc(a1-3)]GlcNAc(b1-2)Man(a1-3)[Fuc(a1-2)Gal(b1-4)[Fuc(a1-3)]GlcNAc(b1-2)Man(a1-6)]Man(b1-4)GlcNAc(b1-4)GlcNAc
Method in brief: as §1

Fuc(a1-2)Gal(b1-4)Glc = target: Fuc(a1-2)Gal(b1-4)Glc
Method in brief: as §1

Fuc(a1-2)Gal(b1-4)Glc6S = target: Fuc(a1-2)Gal(b1-4)Glc6S
Method in brief: as §1

Fuc(a1-2)Gal(b1-4)GlcNAc = target: Fuc(a1-2)Gal(b1-4)GlcNAc
Method in brief: as §1

[20] = target: Fuc(a1-2)Gal(b1-4)GlcNAc(b1-2)Man
Method in brief: as §1

[21] = target: Fuc(a1-2)Gal(b1-4)GlcNAc(b1-2)Man(a1-3)[Fuc(a1-2)Gal(b1-4)GlcNAc(b1-2)Man(a1-6)]Man(b1-4)GlcNAc(b1-4)GlcNAc
Method in brief: as §1

[22] = target: Fuc(a1-2)Gal(b1-4)GlcNAc(b1-2)Man(a1-3)[Fuc(a1-2)Gal(b1-4)GlcNAc(b1-2)Man(a1-6)]Man(b1-4)GlcNAc(b1-4)[Fuc(a1-6)]GlcNAc
Method in brief: as §1

[23] = target: Fuc(a1-2)Gal(b1-4)GlcNAc(b1-2)[Fuc(a1-2)Gal(b1-4)GlcNAc(b1-4)]Man(a1-3)[Fuc(a1-2)Gal(b1-4)GlcNAc(b1-2)Man(a1-6)]Man(b1-4)GlcNAc(b1-4)GlcNAc
Method in brief: as §1

[24] = target: Fuc(a1-2)Gal(b1-4)GlcNAc(b1-3)Gal(b1-4)GlcNAc
Method in brief: as §1

B1: GSL-I-B4 (Griffonia simplicifolia) (protein)
chain: NFWSDVEDSIIFQGDANTTAGTLQLCKTNQYGTPLQWSAGRALYSDPVQLWDNKTESVASFYTEFTFFLKITGNGPADGLAFFLAPPDSDVKDAGEYLGLFNKSTATQPSKNQVVAVEFDTWTNPNFPEPSYRHIGINVNSIVSVATKRWEDSDIFSGKIATARISYDGSAEILTVVLSYPDGSDYILSHSVDMRQNLPESVRVGISASTGNNQFLTVYILSWRFSSNLQSTSVKAAMEPEITRTVV
glycan array binding signal (z-score) (Fuc(a1-2)Gal): -0.181 | glycan array binding signal (z-score) (Fuc(a1-2)Gal(b1-3)GalNAc): -0.188 | glycan array binding signal (z-score) [1]: -0.132 | glycan array binding signal (z-score) [2]: -0.109 | glycan array binding signal (z-score) [3]: -0.073 | glycan array binding signal (z-score) [4]: -0.165 | glycan array binding signal (z-score) [5]: -0.141 | glycan array binding signal (z-score) (Fuc(a1-2)Gal(b1-3)GlcNAc): -0.161 | glycan array binding signal (z-score) [6]: -0.127 | glycan array binding signal (z-score) [7]: -0.145 | glycan array binding signal (z-score) [8]: -0.137 | glycan array binding signal (z-score) [9]: -0.152 | glycan array binding signal (z-score) [10]: -0.15 | glycan array binding signal (z-score) [11]: -0.155 | glycan array binding signal (z-score) [12]: -0.183 | glycan array binding signal (z-score) [13]: -0.205 | glycan array binding signal (z-score) [14]: -0.212 | glycan array binding signal (z-score) [15]: -0.14 | glycan array binding signal (z-score) [16]: -0.183 | glycan array binding signal (z-score) [17]: -0.163 | glycan array binding signal (z-score) [18]: -0.086 | glycan array binding signal (z-score) [19]: -0.128 | glycan array binding signal (z-score) (Fuc(a1-2)Gal(b1-4)Glc): -0.148 | glycan array binding signal (z-score) (Fuc(a1-2)Gal(b1-4)Glc6S): -0.131 | glycan array binding signal (z-score) (Fuc(a1-2)Gal(b1-4)GlcNAc): -0.133 | glycan array binding signal (z-score) [20]: -0.172 | glycan array binding signal (z-score) [21]: -0.145 | glycan array binding signal (z-score) [22]: -0.221 | glycan array binding signal (z-score) [23]: -0.068 | glycan array binding signal (z-score) [24]: -0.215
